The text below walks through data of the RNAGym collection of RNA variant scans (doi:10.7554/elife.90254).

The labels stand for the following.
B1: LINE1-mini (parent)
chain: GGCAGAGCUCAACACAGCGUGGCAAAGUGGCUGUGGCUAGACUGCC

Read counts are not given, so values of variants with three or more changes are uncertain.

The data set covers variants of B1. In words: self-cleavage, relative activity (ratio to wild type); higher = more cleavage; in vitro, sequencing; the parent is a self-cleaving ribozyme.
As for GGCAGAGCUCAACACAGCGUGGCAAAGGGGCUGUGGCCAGACUGUC [U28G U38C C45U], the self-cleavage was determined as 0.25. Regarding GGCAGAGCUCAACACAGCGUGGCAAAGGGGCUGUGACCUGACUGCC [U28G G36A U38C A39U], the self-cleavage is 0.03. Turning to GGCAGAGCUCAACACAGCGUGGCAAAGUUGCUGUGGCUAUACUGCA [G29U G40U C46A], the self-cleavage was determined as 0.14.

In the case of GGCAGAGCUCAACACAGCGUGGCAAAGAAGCUGUGGAUAGACUGCC [U28A G29A C37A], the self-cleavage turned out to be 0.07. Consider GGCAGAGCUCAACACAGCGUGGCAAAGUAUCUGUGGCUACACUGCC [G29A G30U G40C], for which the self-cleavage came out at 0.04. Under GGCAGAGCUCAACACAGCGUGGCAAAGCGGAUGAGGCUAGACUGCC [U28C C31A U34A] stands 0.01; under GGCAGAGCUCAACACAGCGUGGCAAAGUAACUCUGACUAGACUCCC [G29A G30A G33C G36A G44C], 0.05; under GGCAGAGCUCAACACAGCGUGGCAAAGUAGCUGUAGCGAGACUGCC [G29A G35A U38G], 0.03. Take GGCAGAGCUCAACACAGCGUGGCAAAGAGGCUGUGACUAAACUGCC [U28A G36A G40A]: the self-cleavage worked out at 0.01.

Turning to GGCAGAGCUCAACACAGCGUGGCAAAGUUGCUGUGUCUUGACUGCC [G29U G36U A39U], the self-cleavage is 0.03. As to GGCAGAGCUCAACACAGCGUGGCAAAGUCGCUGUGGUUAUACUGCC [G29C C37U G40U], the self-cleavage was found to be 0.08. On to GGCAGAGCUCAACACAGCGUGGCAAAGCUGUCGUGGCUAGACUGCC [U28C G29U C31U U32C], for which the self-cleavage worked out at 0.03.

Regarding GGCAGAGCUCAACACAGCGUGGCAAAUUGGCUUUGGAUAGACUUAC [G27U G33U C37A G44U C45A], the self-cleavage was 0.05. With GGCAGAGCUCAACACAGCGUGGCAAAGUCGCUCUGGCUAGAGUGCC [G29C G33C C42G] the figure was 0.09; with GGCAGAGCUCAACACAGCGUGGCAAAGGGGCUGUCGCUUGACUGCC [U28G G35C A39U], 0.07. Consider GGCAGAGCUCAACACAGCGUGGCAAAGUUGCUGUGGUUAGACUGCA [G29U C37U C46A], for which the self-cleavage came to 0.01. As for GGCAGAGCUCAACACAGCGUGGCAAAGUUGCUUUGGCUAUACUGCC [G29U G33U G40U], the self-cleavage is 0.04. Take GGCAGAGCUCAACACAGCGUGGCAAAGCGGCUGUGGUCAGAGUGGC [U28C C37U U38C C42G C45G]: the self-cleavage was found to be 0.01. Under GGCAGAGCUCAACACAGCGUGGCAAAGUAGUUGUGUCUAGACUGCC [G29A C31U G36U] stands 0.03; under GGCAGAGCUCAACACAGCGUGGCAAAUGAGCGGUGGCUAGACUGCC [G27U U28G G29A U32G], 0.18. Under GGCAGAGCUCAACACAGCGUGGCAAAGGGGCUGUGGCUAGAAUCCC [U28G C42A G44C] stands 0.14; under GGCAGAGCUCAACACAGCGUGGCAAAGAGGCUGUGGGGAGACUGCC [U28A C37G U38G], 0; under GGCAGAGCUCAACACAGCGUGGCAAAGUUGCUGUAGGUAGACUGCC [G29U G35A C37G], 0.11. GGCAGAGCUCAACACAGCGUGGCAAAUCAGCUGUGGCUAGACUGCC [G27U U28C G29A]: the self-cleavage was found to be 1.01. GGCAGAGCUCAACACAGCGUGGCAAAUUGGCUGUGGCUACAAUGCC [G27U G40C C42A]: the self-cleavage turned out to be 0.05. In the case of GGCAGAGCUCAACACAGCGUGGCAAAGAGGUUGUGUCUAGACUGCA [U28A C31U G36U C46A], the self-cleavage amounted to 0.04. With GGCAGAGCUCAACACAGCGUGGCAAAGUUGCUGUUGCUAGGCGGCC [G29U G35U A41G U43G], the self-cleavage was 0.03. Turning to GGCAGAGCUCAACACAGCGUGGCAAAGCGGCUGUGGCUAUACAGCC [U28C G40U U43A], the self-cleavage amounted to 0.09.

Take GGCAGAGCUCAACACAGCGUGGCAAAGUUACUGUGGCUAGAUUGCC [G29U G30A C42U]: the self-cleavage is 0.47. As to GGCAGAGCUCAACACAGCGUGGCAAAUCGGCUUUGGCUAGACUGCC [G27U U28C G33U], the self-cleavage was determined as 0.04. As for GGCAGAGCUCAACACAGCGUGGCAAAGCUGCUGUGGCUUGACUGUG [U28C G29U A39U C45U C46G], the self-cleavage was 0.33. With GGCAGAGCUCAACACAGCGUGGCAAAGAGGCUGUGACUAGCCUGCC [U28A G36A A41C] the figure was 0.02; with GGCAGAGCUCAACACAGCGUGGCAAAGGUGCUGUGACUAGACUGCC [U28G G29U G36A], 0.14; with GGCAGAGCUCAACACAGCGUGGCAAAGCGGCUGAUGCUAGACUGCC [U28C U34A G35U], 0.03. On to GGCAGAGCUCAACACAGCGUGGCAAAGUUUCUGUGGCUAGACUUCC [G29U G30U G44U], for which the self-cleavage was 0.05. In the case of GGCAGAGCUCAACACAGCGUGGCAAAGUCCCUGUGGCUAGACAGCC [G29C G30C U43A], the self-cleavage was found to be 0. In the case of GGCAGAGCUCAACACAGCGUGGCAAAGAGCCUGUCGUUAGACUGCC [U28A G30C G35C C37U], the self-cleavage is 0.01.

Regarding GGCAGAGCUCAACACAGCGUGGCAAAGCGGCUGUGGCUAUACUGGC [U28C G40U C45G], the self-cleavage amounted to 0.12.

Turning to GGCAGAGCUCAACACAGCGUGGCAAAGGGGCUGUUGGUAGACUUCC [U28G G35U C37G G44U], the self-cleavage stood at 0.01. With GGCAGAGCUCAACACAGCGUGGCAAAGUUGCUGUGGCUAGAGUGCU [G29U C42G C46U], the self-cleavage amounted to 0.03. Consider GGCAGAGCUCAACACAGCGUGGCAAAGGUGAUGUGGCUAGACUGCC [U28G G29U C31A], for which the self-cleavage stood at 0.26.

With GGCAGAGCUCAACACAGCGUGGCAAAGGGGUUGUGGUUAGACUGCC [U28G C31U C37U], the self-cleavage was 0.03. With GGCAGAGCUCAACACAGCGUGGCAAAUUGGCUAUGACUAGACUGCC [G27U G33A G36A] the figure was 0.05; with GGCAGAGCUCAACACAGCGUGGCAAAGUAGCUGUGACUAGAAUGCC [G29A G36A C42A], 0.02.

For GGCAGAGCUCAACACAGCGUGGCAAAGUAGCGGUGGCUAUACUGCC [G29A U32G G40U], the self-cleavage turned out to be 0.05. Under GGCAGAGCUCAACACAGCGUGGCAAAGUUGCUGUGCCUAGGGUGCC [G29U G36C A41G C42G] stands 0.12.

In the case of GGCAGAGCUCAACACAGCGUGGCAAAGAGGCCGUGGCUAGACGGCC [U28A U32C U43G], the self-cleavage amounted to 0.05. In the case of GGCAGAGCUCAACACAGCGUGGCAAAGUAGCUGUGGCUAAACUCGC [G29A G40A G44C C45G], the self-cleavage came to 0.16. On to GGCAGAGCUCAACACAGCGUGGCAAAGGAGCUGUGGCUAGACUGCU [U28G G29A C46U], for which the self-cleavage was 0.12. Under GGCAGAGCUCAACACAGCGUGGCAAAUUGGCUGUGGCGAGACAGCC [G27U U38G U43A] stands 0; under GGCAGAGCUCAACACAGCGUGGCAAAGCGUCUGUGGCUUGACUGCC [U28C G30U A39U], 0.42; under GGCAGAGCUCAACACAGCGUGGCAAAGUCGCUAUGGCUAUACUGCC [G29C G33A G40U], 0.06.

For GGCAGAGCUCAACACAGCGUGGCAAAGUUGCCGUGGCUAGAUUGCC [G29U U32C C42U], the self-cleavage is 0.68. For the variant GGCAGAGCUCAACACAGCGUGGCAAAGUUGCUGUGGCUAAAAUGCC [G29U G40A C42A], the self-cleavage came out at 0.03. As for GGCAGAGCUCAACACAGCGUGGCAAAGGUGCUGUGGGUAGACUGCC [U28G G29U C37G], the self-cleavage came out at 0.04. Under GGCAGAGCUCAACACAGCGUGGCAAAGAGUCUGUGGCGCGACUGCC [U28A G30U U38G A39C] stands 0.07.
